The values that follow come from PMC4336329 (PLoS ONE, 2015).

Structures are written as SMILES. Among all 310,000 compounds or so, about 14,000 (4.5%) showed an effect of 50% or more. Effects have a minus sign here. Some of the results follow.
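Further: peak tail current of the secondary pulse compared with the same well before compound.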

The target of this experiment is human ether-à-go-go-related gene (hERG) potassium channel (human, UniProt Q12809). Description: primary screen, population patch clamp on CHO cells stably expressing hERG.
Chain of human ether-à-go-go-related gene (hERG) potassium channel (Q12809 whole entry, looked up): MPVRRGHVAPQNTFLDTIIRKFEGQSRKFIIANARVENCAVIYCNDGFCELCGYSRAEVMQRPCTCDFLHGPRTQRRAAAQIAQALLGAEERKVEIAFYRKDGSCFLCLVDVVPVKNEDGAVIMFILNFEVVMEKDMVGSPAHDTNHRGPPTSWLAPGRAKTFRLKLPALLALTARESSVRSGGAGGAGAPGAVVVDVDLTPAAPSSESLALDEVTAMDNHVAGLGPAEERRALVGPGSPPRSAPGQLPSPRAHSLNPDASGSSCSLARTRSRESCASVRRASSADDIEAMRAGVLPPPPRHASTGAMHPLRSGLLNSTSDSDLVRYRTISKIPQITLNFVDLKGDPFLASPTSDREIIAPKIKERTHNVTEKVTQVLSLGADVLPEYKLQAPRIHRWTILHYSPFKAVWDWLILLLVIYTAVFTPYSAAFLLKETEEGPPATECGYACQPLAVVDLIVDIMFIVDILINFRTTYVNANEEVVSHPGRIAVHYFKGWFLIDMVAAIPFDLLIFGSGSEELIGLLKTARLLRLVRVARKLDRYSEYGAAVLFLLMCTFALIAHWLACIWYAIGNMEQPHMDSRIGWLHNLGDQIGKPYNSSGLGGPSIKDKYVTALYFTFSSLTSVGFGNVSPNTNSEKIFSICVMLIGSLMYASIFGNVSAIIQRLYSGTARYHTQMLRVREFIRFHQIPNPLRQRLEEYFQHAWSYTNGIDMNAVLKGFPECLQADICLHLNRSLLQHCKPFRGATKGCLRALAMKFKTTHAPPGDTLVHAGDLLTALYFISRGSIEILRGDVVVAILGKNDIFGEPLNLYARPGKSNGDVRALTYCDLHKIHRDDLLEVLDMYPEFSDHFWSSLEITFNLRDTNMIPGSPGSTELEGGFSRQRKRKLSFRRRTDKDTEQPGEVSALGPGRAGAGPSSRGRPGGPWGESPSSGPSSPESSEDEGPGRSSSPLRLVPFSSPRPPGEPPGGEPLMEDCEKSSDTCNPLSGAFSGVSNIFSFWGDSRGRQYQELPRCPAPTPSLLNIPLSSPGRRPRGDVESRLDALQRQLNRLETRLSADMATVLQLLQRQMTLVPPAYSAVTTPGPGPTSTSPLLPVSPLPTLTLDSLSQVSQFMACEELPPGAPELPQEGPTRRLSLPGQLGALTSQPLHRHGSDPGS
For the molecule `O=C(CCOc1ccccc1)Nc1ccnn1C1CCN(Cc2ccc(O)cc2)CC1`, the “hERG current change (%, negative = inhibition) at 10uM” value is listed as -31.3%.
To `CNC(=O)Cc1csc2ccc(Cl)cc12` belongs 17.8%; to `COc1ccc(S(=O)(=O)CCC(=O)N2c3ccccc3CC2C)cc1` (centres unmarked), -16.9%; to `O=C(c1cccc(Cl)c1)C1CCCN(C(=O)c2ccoc2)C1` (centres unmarked), -36%.
To `O=C(CN1CCN(S(=O)(=O)c2ccccc2C(F)(F)F)CC1)NCc1cccs1` belongs -68.1%; to `Nc1c(C(=O)N2CCOCC2)sc(=S)n1-c1ccccc1`, 4.13%.
Then `COc1cccc(Nc2ncnc3onc(-c4ccccc4OC)c23)c1`, with -4.9%.
With `Cc1ccc(OCC(=O)N/N=C/c2cccnc2)cc1C`, the “hERG current change (%, negative = inhibition) at 10uM” value is -3.09%.
Then `O=C(COc1ccc(Br)cc1)NN1C(=O)c2ccccc2C1=O`, with 4.3%; and `C/C(N)=C(/C#N)C(=O)COC(=O)c1ccccc1Cc1ccccc1`, with 16.2%; and `CCOC(=O)/C(C#N)=C/C1=C(N2CCCC2)CC(C)(C)OC1`, with -6.24%.
For `O=C(Nc1ccccn1)c1ccc(Cl)c(S(=O)(=O)N2CCCC2)c1`, the “hERG current change (%, negative = inhibition) at 10uM” value is given as -7.69%.
Then `Cc1ccc(C(=O)COc2ccccc2-c2ccccc2)cc1C`, with 5.71%.
Then `CC(=O)c1ccc(OCc2cc(C(=O)N(C)C(C)c3ccon3)no2)cc1` (centres unmarked), with 3.58%; and `Cc1cc(C)n(C(C)CC(=O)N2CCc3ccccc32)n1` (centres unmarked), with 5.2%.
As to `Cc1cccc(/C=C/c2nc3ccccc3c(=O)[nH]2)c1`, the “hERG current change (%, negative = inhibition) at 10uM” value is reported as -11%.
To `O=C(Nc1ccc(NC(=O)C2CC2)nc1)c1ccncc1` belongs 1.23%; to `CCCCCCNC(=O)C(C(=O)OCC)C1CCCCC1` (centres unmarked), -4.59%.
To `NC(=O)c1sc2nc3c(c(-c4cccs4)c2c1N)CCCCC3` belongs -4.46%; to `O=C(NC(N1CCOCC1)C(Cl)(Cl)Cl)c1ccco1` (centres unmarked), 13%; to `Cn1nnnc1Sc1ncnc2scc(-c3ccc([N+](=O)[O-])cc3)c12`, -44.3%.
To `COc1ccc(OC)c2[nH]c(=O)c(CCNC(=O)C(=O)c3c(C)[nH]c4ccccc34)cc12` belongs -1.04%.
Consider `CCOC(=O)c1c(C)[nH]c(C(=O)CN2C(=O)NC(C)(CC(C)C)C2=O)c1C` (centres unmarked), for which the “hERG current change (%, negative = inhibition) at 10uM” value is recorded as 13.2%.
Consider `CCN1CCN(S(=O)(=O)c2ccc(Cl)nc2)CC1`, for which the “hERG current change (%, negative = inhibition) at 10uM” value was determined as 0.409%.
To `CC(C)CC(=O)N1CCC(N2CCN(c3ccccc3)CC2)CC1` belongs -12%; to `CC(=O)Nc1ccc(Nc2ccc(N3C(=O)CCCC3=O)cc2[N+](=O)[O-])cc1`, 8.22%.
